# Out of some 310,000 compounds screened, about 14,000 (4.5%) showed an effect of 50% or more. The effect is printed as a negative number. The list shows a part of the results.
# Target: human ether-à-go-go-related gene (hERG) potassium channel (human, UniProt Q12809)
# Assay: primary screen, population patch clamp on CHO cells stably expressing hERG
# 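Also: peak tail current of the secondary pulse compared with the same well before compound.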
# human ether-à-go-go-related gene (hERG) potassium channel, sequence (Q12809 whole entry, looked up): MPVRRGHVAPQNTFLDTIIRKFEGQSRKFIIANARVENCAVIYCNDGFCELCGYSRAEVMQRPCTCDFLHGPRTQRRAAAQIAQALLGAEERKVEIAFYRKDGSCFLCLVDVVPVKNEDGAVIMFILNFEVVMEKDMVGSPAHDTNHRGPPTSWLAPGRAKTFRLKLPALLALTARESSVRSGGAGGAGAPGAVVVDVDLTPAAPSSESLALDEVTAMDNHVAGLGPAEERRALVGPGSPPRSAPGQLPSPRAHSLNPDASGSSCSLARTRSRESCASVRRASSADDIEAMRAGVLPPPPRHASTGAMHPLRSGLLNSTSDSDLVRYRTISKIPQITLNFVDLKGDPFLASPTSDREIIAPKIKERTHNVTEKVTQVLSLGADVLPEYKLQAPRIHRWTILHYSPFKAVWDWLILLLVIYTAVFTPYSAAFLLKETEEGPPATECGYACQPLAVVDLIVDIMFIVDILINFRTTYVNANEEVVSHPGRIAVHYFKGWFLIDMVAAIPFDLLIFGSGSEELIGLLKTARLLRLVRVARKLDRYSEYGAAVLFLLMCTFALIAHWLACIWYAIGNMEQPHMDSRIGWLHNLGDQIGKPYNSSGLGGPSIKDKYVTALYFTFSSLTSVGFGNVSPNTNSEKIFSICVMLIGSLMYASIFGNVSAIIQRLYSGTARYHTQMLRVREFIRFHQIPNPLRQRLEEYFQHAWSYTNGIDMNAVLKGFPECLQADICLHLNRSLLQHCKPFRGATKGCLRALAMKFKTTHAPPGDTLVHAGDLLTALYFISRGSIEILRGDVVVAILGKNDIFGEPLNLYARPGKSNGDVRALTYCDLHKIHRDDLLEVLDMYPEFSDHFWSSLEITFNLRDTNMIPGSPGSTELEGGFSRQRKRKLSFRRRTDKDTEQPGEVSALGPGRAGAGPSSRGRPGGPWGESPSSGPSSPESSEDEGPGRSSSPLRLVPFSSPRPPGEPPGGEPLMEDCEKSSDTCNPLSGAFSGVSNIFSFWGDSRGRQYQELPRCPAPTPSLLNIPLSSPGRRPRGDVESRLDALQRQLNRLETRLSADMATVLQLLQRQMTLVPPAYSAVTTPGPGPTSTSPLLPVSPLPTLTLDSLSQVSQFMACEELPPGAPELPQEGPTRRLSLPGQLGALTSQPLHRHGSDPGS
row,Compound,"hERG current change (%, negative = inhibition) at 10uM [%]"
1,CN(C)CCCNc1nc(-c2ccc(Cl)cc2)nc2ccccc12,-35.5
2,CC(CN1CCCCC1)OC(=O)c1ccc(Cl)cc1Cl.Cl (stereo not shown),-27.5
3,COc1ccc(C[C@H]2CN3C(=NC[C@@H]3C(C)C)N2CCNC(=O)CCC2CCCCC2)cc1,-80.4
4,CC(=O)N1CCN(CC(=O)Nc2sccc2C#N)CC1,17.8
5,Fc1cccc(CSc2nc3ccncc3[nH]2)c1,2.88
6,CCN(CC)S(=O)(=O)c1ccc(NC(=O)COC(=O)c2cc(S(=O)(=O)Nc3ccc(OC)cc3)ccc2O)cc1,19.2
7,O=C(NCc1cccc(Cl)c1)c1cnn2c1NC(c1ccco1)CC2C(F)(F)F (stereo not shown),-27.1
8,O=C(CN1CCCC1)Nc1ccccc1Sc1ccc(Cl)cc1,-31.1
9,O=C(Nc1cc(C(F)(F)F)ccc1N1CCOCC1)c1c(F)c(F)c(F)c(F)c1F,4.24
10,Cn1nc(-c2ccccc2)c(-c2nc(-c3cccc(C(F)(F)F)c3)no2)c1Cl,17.4
11,COc1cccc(CNCc2ccc3c(c2)OCO3)c1.O=C(O)C(=O)O,13.7
12,O=C(O)c1cc(S(=O)(=O)Nc2cc(Cl)ccc2Oc2ccccc2)ccc1O,22.9
13,CCn1c(SCC(N)=O)nc2ccccc2c1=O,9.04
14,CCOC(=O)C1CCN(C(=O)C2(NC(=O)Nc3ccc(F)cc3F)CCCCC2)CC1,-4.71
15,Cc1cnc([N+](=O)[O-])n1CCOC(=O)NC(=O)c1ccccc1,7.99
16,COc1cc(CCC(=O)OCC(=O)Nc2ccc3c(c2)OCO3)cc(OC)c1OC,4.94
17,Cn1ncc2nc[nH]c(=O)c21,9.16
18,O=C(NCc1cccnc1)c1cccc(-c2cc3ccccc3oc2=O)c1,-63.9
19,CC(Sc1nc2ncc(Cl)cc2[nH]1)C(=O)Nc1ccc(C(N)=O)cc1 (stereo not shown),6.76
20,Cn1c2c(c(=O)[nH]c1=O)C(NC(=O)c1ccco1)(C(F)(F)F)C(=O)N2 (stereo not shown),5.51
21,Cc1ccc(NC(=O)/C(C#N)=C/c2ccc(C)s2)c(C)c1,13.1
22,Cc1cc(C)c2c3c(sc2n1)C(c1ccccc1)C(C#N)=C(N)O3 (stereo not shown),-9.48

row,Compound,"hERG current change (%, negative = inhibition) at 10uM [%]"
1,Cn1cc(CNC(=O)C2c3ccccc3Oc3ccccc32)cn1,13.5
2,c1ccc(Oc2cc(-n3cccn3)ncn2)cc1,-23.3
3,O=Cc1ccccc1OCc1ccc2c(c1)OCO2,-7.75
4,CCN(CC)CCNc1nc2c(c(=O)[nH]c(=O)n2C)n1CCCc1ccccc1,-46.9
5,COC(=O)C1=NNC(C(=O)c2ccco2)C1c1ccc(OC)cc1 (stereo not shown),15.1
6,Clc1ccc(/C=N/c2c(-c3ccc(Cl)cc3)nc3n2CCS3)cc1,1.1
7,C/[N+]([O-])=C\c1ccc([N+](=O)[O-])o1,-1.36
8,C=CCn1c(SCC(=O)N2CCc3ccccc3C2)nc2sc(C)cc2c1=O,-7.46
9,COc1ccc2c(c1)sc(N)[n+]2Cc1cc(C)cc2cccnc12.[Br-],-74
10,CN1C[C@@H]2C[C@@H](c3ccc(C#CC(C)(C)O)s3)N3CCC[C@@]23C1=O,9.88
11,Cc1cccc(NC(=O)CCNC(=O)c2ccco2)c1,38.1
12,O=C(OC1CCOC1=O)C1CCN(S(=O)(=O)c2ccccc2)CC1 (stereo not shown),3.67
13,CCOC(=O)CSc1nc(C(C)C)nc2ccccc12,1.16
14,O=C(CN1CCN(S(=O)(=O)c2ccccc2[N+](=O)[O-])CC1)NC(=O)NCc1ccco1,-5.96
15,CCOc1ccc(NC(=O)N2CCC(c3nc4ccccc4[nH]3)CC2)cc1,-0.677
16,CCOC(=O)c1c(NC(C)=O)no[n+]1[O-],5.4
17,CCCC(=O)Nc1nnc(/C=C/c2ccccc2)s1,14.8
18,Cc1cc(Nc2ccc(C)c(F)c2)n2ncnc2n1,3.25
19,Cc1ccc2nsnc2c1S(=O)(=O)N1CCCC1C(=O)O (stereo not shown),3.79
20,O=C1CC(c2ccccc2)CC(O)=C1C=NCCN1CCN(C(=S)Nc2cccc(Cl)c2)CC1 (stereo not shown),-39.4
21,CCN(CC(=O)Nc1cccc(S(N)(=O)=O)c1)Cc1nc2ccccc2c(=O)[nH]1,3.49

# — PMC4336329 (PLoS ONE, 2015)
